This test concerns Plasmodium falciparum NF54 stage V gametocytes. The experiment in a line: viability index relative to DMSO control (fraction); higher = less gametocyte killing. The settings on record: 2.5 µM, incubation time: 72 h. In short, it runs like this: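 In 1,536-well plates, 10 µl of serum-free medium holding P. falciparum NF54 stage V gametocytes (0.75% gametocytemia, 1.25% hematocrit) received compound at 2.5 µM for 72 hr at 37°C in low oxygen. After one to two hours with 3 µl of 2.5 µM MitoTracker Red CMXRos containing 0.13% saponin, red particles of 20–70 µm2 were counted in a single field per well. Viability index is reported as the particle count over the plate mean of wells treated with solvent only.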

[1] abbreviates: library set: Broad Institute DOS.

± gives the uncertainty stated by the source. Over roughly 9,900 compounds, “viability index relative to DMSO control” has its median near 1; the lowest 2% begin near 0.85. Some of the results follow.

Compound `Cc1noc(C)c1NC(=O)Nc1ccc2c(c1)C(=O)N([C@@H](C)CO)C[C@H](C)[C@@H](CN(C)S(=O)(=O)c1ccc(F)cc1)O2` showed a viability index under setting [1] of 0.984 ± 0.055.
For `CCN(C[C@@H]1[C@@H](c2ccc(-c3cccnc3)cc2)[C@@H](CO)N1C(C)=O)C(C)=O`, the viability index under setting [1] was determined as 0.971 ± 0.043.
With `CCCNC(=O)N1[C@H](C#N)[C@H](c2ccc(C3=CCCCC3)cc2)[C@@H]1CO`, the viability index (library set: Broad Institute Blood Stage) was found to be 0.898 ± 0.025.
The compound `COc1ccccc1-c1ccccc1[C@@H]1[C@@H](CO)N(C(=O)C2CCOCC2)[C@H]1C#N` returned a viability index under setting [1] of 1.12 ± 0.052.
`COc1cccc(CNC(=O)[C@@H]2[C@@H](CO)[C@@H]3Cn4c(cccc4=O)[C@H]2N3C(=O)C2CCCC2)c1` gave a viability index under setting [1] of 1.028 ± 0.0065.
Same read-out and setting: for `Cc1ccccc1-c1ccc([C@H]2[C@@H](CO)N3CCCCN(S(=O)(=O)Cc4ccccc4)C[C@@H]23)cc1` the value was 0.991 ± 0.063.
Still for that read-out and setting: for `COCC(=O)N1[C@@H](CO)[C@H](c2ccccc2)C12CN(C(=O)c1ccccc1)C2` the value was 1.0697 ± 0.00093; for `COc1ccc2c3c([C@H](CO)N(C[C@]33CCN(Cc4nccs4)CC3)S(C)(=O)=O)n(C)c2c1`, 1.07 ± 0.015; for `CN1C(=O)c2cc(NS(=O)(=O)c3cccc(F)c3)ccc2OC[C@@H]2O[C@@H](CC(=O)N3CCc4ccccc4C3)CC[C@@H]21`, 1.07 ± 0.048.
Same read-out and setting: the value for `COCC(=O)Nc1ccc2c(c1)C(=O)N(C)[C@@H]1CC[C@@H](CC(=O)NC3Cc4ccccc4C3)O[C@@H]1CO2` was 1.08 ± 0.064; that for `C[C@H](NC(=O)C[C@H]1CC[C@@H]2[C@H](COC[C@@H](O)CN2C(=O)Nc2cccc(Cl)c2)O1)c1ccccc1` was 1.02 ± 0.027.
On to `CC(C)C(=O)Nc1ccc2c(c1)C(=O)N(C)[C@@H]1CC[C@@H](CC(=O)NCCc3ccccc3)O[C@H]1CO2`, for which the viability index under setting [1] was 1.18 ± 0.099.
Same read-out and setting: for `C[C@@H]1CCCCO[C@H](CN(C)Cc2ccncc2)[C@H](C)CN([C@H](C)CO)C(=O)c2cc(NC(=O)Cc3ccccc3)ccc2O1` the value was 1.12 ± 0.14; for `CCCNC(=O)N1C[C@H](C)[C@H](OC)CN(C)C(=O)c2ccc(NC(=O)CC)cc2OC[C@H]1C`, 1 ± 0.04.
On the same count and under the same terms, for `N#C[C@@H]1[C@H](c2ccccc2)[C@@H](CO)N1C(=O)CCN1CCCCC1` the value was 1.1 ± 0.14.
`C[C@@H]1CN([C@H](C)CO)C(=O)c2c(c3ccccc3n2C)-c2ccccc2CO[C@H]1CN(C)C(=O)Nc1ccccc1C(F)(F)F`: the viability index under setting [1] is 0.996 ± 0.036.
Still for that read-out and setting: the value for `COc1ccc2c3c([nH]c2c1)[C@@H](CO)NC[C@]31CCN(CC1)C(=O)Nc1ccccc1F` was 1.06 ± 0.057; that for `CC[C@@H]1C/C=C\C[C@@H](c2ccc(OC)cc2OC)NC(=O)[C@H](C)CC(=O)N1` was 0.967 ± 0.14; that for `CCS(=O)(=O)N1C[C@@]2(C1)CN(CC1CCOCC1)[C@@H](CO)c1c2c2ccc(OC)cc2n1C` was 1.07 ± 0.042.
Same read-out and setting: the value for `CC(C)[C@@H]1C/C=C\C[C@@H](c2ccc(F)cc2)NC(=O)[C@H](C)CC(=O)N1` was 0.9678 ± 0.0059; that for `O=C(c1ccc(F)cc1)N1CC(=O)N2[C@H](CO)[C@H](c3ccc(C#CCC4CCCC4)cc3)[C@H]2C1` was 0.953 ± 0.0018; that for `CCC(=O)N1C[C@@H](O)COC[C@@H]2O[C@@H](CC(=O)NCc3ccc(Oc4ccccc4)cc3)CC[C@H]21` was 1.12 ± 0.052.
On the same count and under the same terms, the value for `CO[C@@H](C(=O)N(C)C[C@H]1OCc2ccccc2-c2ccccc2C(=O)N([C@H](C)CO)C[C@@H]1C)c1ccccc1` was 1.04 ± 0.1; that for `N#C[C@H]1[C@@H](c2ccccc2-c2ccccc2F)[C@H](CO)N1C(=O)Cc1ccccc1` was 1.149 ± 0.0052; that for `O=C(C[C@H]1CC[C@@H]2[C@H](COC[C@H](O)CN2C(=O)Cc2ccccc2)O1)NC1Cc2ccccc2C1` was 1.09 ± 0.066.
Compound `CCCNC(=O)C[C@H]1CC[C@@H]2[C@H](COC[C@H](O)CN2C(=O)Nc2ccc(Cl)c(Cl)c2)O1` displayed a viability index under setting [1] of 1.16 ± 0.013.
On the same count and under the same terms, for `COC(=O)C[C@H]1CC[C@@H]2[C@H](COC[C@H](O)CN2S(=O)(=O)c2cn(C)cn2)O1` the value was 1.12 ± 0.035; for `O=C(C[C@H]1C[C@@H]2c3cc(NC(=O)C4CCOCC4)ccc3O[C@@H]2[C@H](CO)O1)NCCN1CCCCC1`, 1.05 ± 0.029.
The same measure, in the same setting: the value for `COCCNC(=O)[C@H]1[C@H](CO)[C@H]2Cn3c(cccc3=O)[C@@H]1N2Cc1cccc(Cl)c1` was 1.03 ± 0.079.
Still for that read-out and setting: for `COc1ccc2c3c([nH]c2c1)[C@H](CO)N(C[C@]31CN(Cc2ccccc2)C1)C(=O)c1cccnc1` the value was 0.931 ± 0.031; for `O=C(C1CCOCC1)N1CC(=O)N2[C@H](C1)[C@H](c1ccc(C#CCc3ccccc3)cc1)[C@@H]2CO`, 1.09 ± 0.14; for `Cc1noc(C)c1NC(=O)Nc1ccc2c(c1)C(=O)N([C@@H](C)CO)C[C@H](C)[C@H](CN(C)S(=O)(=O)c1ccc(F)cc1)O2`, 0.98 ± 0.039.
Under setting [1], `Cc1ccc(S(=O)(=O)N2C[C@H]3[C@@H](c4ccccc42)[C@@H](CO)N3Cc2cccnc2)cc1` gave a viability index of 0.972 ± 0.064.
The same measure, in the same setting: for `O=S(=O)(c1ccccc1)N1CC2(C1)[C@H](c1ccccc1)[C@H](CO)N2CC1CCOCC1` the value was 1.06 ± 0.1.
Turning to `C/C=C/c1ccc2c(c1)O[C@@H](CN(C)C(=O)Nc1ccc(OC)cc1)[C@@H](C)CN([C@@H](C)CO)S2(=O)=O`, under setting [1], the viability index is 0.9731 ± 0.0091.
Still for that read-out and setting: for `CCC(=O)Nc1ccc2c(c1)C(=O)N(C)C[C@H](OC)[C@H](C)CN(Cc1nccs1)[C@@H](C)CO2` the value was 1.076 ± 0.0096.
